The text below walks through data of PubChem BioAssay AID360 (National Center for Advancing Translational Sciences (NCATS), 2006).

About 550 (1.1%) of roughly 48,000 compounds were called active. Roughly 4% stayed inconclusive and do not appear here. No stated cut-off is given here; in the data, active means potency below about 15 µM; inconclusive means mostly about 16 µM to 33 µM; inactive means weaker than that. The list shows a part of the results. A value given as a limit tells only on which side of the number the result lay.
Potency means the concentration at half of the fitted maximal effect.

The experiment concerns the target Lysosomal acid glucosylceramidase (Homo sapiens) (UniProt P04062). Put plainly: Glucocerebrosidase.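 Further: the screen sought inhibitors.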 Conditions: purified enzyme, resorufin glucoside fluorescence (screen aimed at inhibitors), 20 min. Summed up: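 Wild-type enzyme at 0.2 nM final in 50mM citric acid/KH2PO4, 10mM sodium taurocholate, 0.01% tween-20, pH 5.9, with resorufin beta-D-glucopyranoside at 30 uM final. Compounds titrated, 20 min at RT, red fluorescence read; AC50 from titration.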
Chain of UniProt P04062 (P04062 whole entry, looked up): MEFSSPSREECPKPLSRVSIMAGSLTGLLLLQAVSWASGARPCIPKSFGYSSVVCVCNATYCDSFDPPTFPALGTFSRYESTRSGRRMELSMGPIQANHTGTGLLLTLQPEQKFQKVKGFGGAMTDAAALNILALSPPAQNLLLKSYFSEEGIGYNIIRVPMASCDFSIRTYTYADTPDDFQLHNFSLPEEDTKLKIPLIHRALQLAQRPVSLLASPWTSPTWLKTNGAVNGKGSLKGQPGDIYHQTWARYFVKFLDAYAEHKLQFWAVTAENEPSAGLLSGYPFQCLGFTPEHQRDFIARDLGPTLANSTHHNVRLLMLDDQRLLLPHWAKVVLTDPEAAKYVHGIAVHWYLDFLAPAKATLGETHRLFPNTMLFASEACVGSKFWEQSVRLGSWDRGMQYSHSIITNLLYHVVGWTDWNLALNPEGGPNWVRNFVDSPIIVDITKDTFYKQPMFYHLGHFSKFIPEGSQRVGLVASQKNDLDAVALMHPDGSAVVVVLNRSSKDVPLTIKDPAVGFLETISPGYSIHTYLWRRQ
With `COn1c(SCc2cccnc2)nc2ccccc2c1=O`, the Potency was inactive: > 76.9 µM.
Then `CCCOc1ccc(C(=O)N2CCCC2)cc1OC`, with inactive: > 76.9 µM.
Under `CCc1cc(=O)oc2cc(OC(C)C(=O)O)c(Cl)cc12` (stereo not given) stands inactive: > 76.9 µM.
Then `CCOC(=O)c1cc(-c2nnc(SCC(=O)Nc3ccc(F)cc3)o2)c(C)nc1C`, with inactive: > 76.9 µM; and `COC(=O)c1c(NC(C)=O)sc2c1CCCC2`, with inactive: > 76.9 µM.
As to `COc1ccc(S(=O)(=O)N2CCN(c3nc4ccccc4nc3-n3nc(C)cc3C)CC2)cc1`, the Potency was inactive: > 76.9 µM.
Take `COc1ccc(N2CCN(C(=O)CSc3ncnc4c3cnn4-c3ccccc3C)CC2)cc1`: the Potency was inactive: > 76.9 µM.
Under `COc1cccc2cc(C(=O)N3CCN(c4ncccn4)CC3)c(=O)oc12` stands inactive: > 76.9 µM; under `O=C(NCC(=O)N(c1cnc2ccccc2c1)C(C(=O)NC1CCCC1)c1ccncc1)c1ccco1` (stereo not given), inactive: > 76.9 µM.
For the compound `COC(=O)c1ccc(NC(=O)CCN2CCCCC2)cc1`, the Potency is inactive: > 76.9 µM.
Then `CC(=O)Nc1ccc(C(=O)n2nc(C)cc2C)cc1`, with inactive: > 76.9 µM; and `CCc1nnc(NC(=O)CN2CCN(C3CCCCC3)CC2)s1`, with inactive: > 76.9 µM.
For the compound `O=C(OCCN1CCCCC1)c1ccccc1Cl`, the Potency was inactive: > 76.9 µM.
As for `c1ccc(-c2nnc3n2NC(c2ccc4c(c2)OCO4)S3)cc1` (stereo not given), the Potency was inactive: > 76.9 µM.
For the compound `COc1ccc(OC)c(S(=O)(=O)Nc2ccc(O)c3ccccc23)c1`, the Potency was inactive: > 76.9 µM.
Under `COc1ccc(OCCC(=O)NC2=NCCS2)cc1` stands inactive: > 76.9 µM.
Turning to `COc1ccc(C)cc1NC(=O)CSc1nnc(-c2cc3cccc(OC)c3o2)n1N`, the Potency is inactive: > 76.9 µM.
Then `COc1ccc(-c2nn(-c3ccccc3)cc2/C=N/n2cnnc2)cc1OC`, with inactive: > 76.9 µM; and `COc1ccc(C(=O)NCc2nnc(SCC(=O)Nc3cc(C)cc(C)c3)o2)cc1OC`, with inactive: > 76.9 µM.
Under `CCOc1ccccc1-n1nnnc1SCC(=O)Nc1cc2oc3ccccc3c2cc1OC` stands inactive: > 76.9 µM; under `c1ccc(-c2noc(-c3cccc4ccccc34)n2)nc1`, inactive: > 76.9 µM; under `CCCc1c(O)nc(SC2CC(=O)N(c3cc(OC)ccc3OC)C2=O)[nH]c1=O` (stereo not given), inactive: > 76.9 µM.
As to `CCC(C)n1cnc2c(c1=O)c1nc3ccccc3nc1n2Cc1ccccc1OC` (stereo not given), the Potency entry is “inactive”.
Then `COc1cc(OC)cc(-c2nnc(Nc3nc4c(F)cccc4s3)o2)c1`, with inactive: > 76.9 µM.
Then `COc1cc(C)c(Br)cc1S(=O)(=O)N1CCCC1`, with inactive: > 76.9 µM; and `CCOC(=O)N1CCN(Cc2nc3c(c(=O)[nH]c(=O)n3C)n2Cc2ccccc2C)CC1`, with inactive: > 76.9 µM.
Then `O=C(CCn1c(=S)[nH]c2ccccc2c1=O)NCC1CCCO1` (stereo not given), with inactive: > 76.9 µM.
Regarding `Cc1ccc(Cn2c(CN3CCN(C(=O)c4ccco4)CC3)nc3c2c(=O)n(C)c(=O)n3C)cc1`, the Potency is inactive: > 76.9 µM.
Then `COc1ccccc1NC(=O)CSc1nc(O)cc(=O)[nH]1`, with inactive: > 76.9 µM.
Under `Cn1c(SCC(=O)c2ccccc2)nc2cccnc21` stands inactive: > 76.9 µM; under `COC(=O)[C@H](C)NC(=O)Nc1ccc(S(N)(=O)=O)cc1`, inactive: > 76.9 µM.
Under `COC(=O)c1ccc(-n2nnnc2SCC(=O)Nc2cc(OC)ccc2OC)cc1` stands inactive: > 76.9 µM; under `Cc1csc(NC(=O)Nc2ccc(Cl)cc2)n1`, inactive: > 76.9 µM; under `Cc1cc(C(=O)Nc2c(F)cc(F)cc2Br)no1`, inactive: > 76.9 µM.
For the compound `c1nc(COc2nsnc2N2CCOCC2)cs1`, the Potency was inactive: > 76.9 µM.
Under `O=c1c(/C=N/O)coc2ccc3ccccc3c12` stands inactive: > 76.9 µM; under `CC1CCCC(C)N1CCNC(=O)Cn1nc(-c2ccccc2)ccc1=O` (stereo not given), inactive: > 76.9 µM; under `COc1ccc(OC)c(S(=O)(=O)Nc2ccc(CC(=O)O)cc2)c1`, inactive: > 76.9 µM.
`CCOC(=O)Nc1ccc(S(=O)(=O)N2CCOCC2)cc1`: the Potency is inactive: > 76.9 µM.
Then `COCCN1CN=C(Nc2nc(C)c3ccc(C)cc3n2)NC1`, with inactive: > 76.9 µM.
Under `CCN(CC(=O)Nc1ccc2c(c1)OCCO2)C(=O)c1cccc(S(=O)(=O)N2CCOCC2)c1` stands inactive: > 76.9 µM; under `c1ccc2c3nnc4n(c-3nc2c1)CCCS4`, inactive: > 76.9 µM; under `CCC(Sc1nc2cc(OC)c(OC)cc2c2nc(C)nn12)C(=O)NCc1ccco1` (stereo not given), inactive: > 76.9 µM.
Consider `COc1cc(S(=O)(=O)N(Cc2cccs2)CC2CCCO2)ccc1-n1cnnn1` (stereo not given), for which the Potency was inactive: > 76.9 µM.
Under `CC(C)C(OC(=O)c1ccco1)C(=O)NCc1ccco1` (stereo not given) stands inactive: > 76.9 µM.
Then `Cc1ccc2c(C)nc(Nc3nc(CSc4nnnn4-c4ccccc4)cc(=O)[nH]3)nc2c1`, with inactive: > 76.9 µM; and `CSCCc1nc(SCC(=O)Nc2nnc(C)s2)[nH]c1C`, with inactive: > 76.9 µM.
Then `Oc1ccc(N2CCN(c3ncnc4sc5c(c34)CCC5)CC2)cc1`, with inactive: > 76.9 µM; and `CC(NC(=O)C(c1ccccc1)c1ccccc1)C(=O)O` (stereo not given), with inactive: > 76.9 µM.
For `Cn1c(=O)c2c(nc(SCC(=O)N3CCCc4ccccc43)n2C)n(C)c1=O`, the Potency was inactive: > 76.9 µM.
Then `Cc1ccccc1-c1nc(Cc2ccc(Cl)cc2)no1`, with inactive: > 76.9 µM; and `O=c1c2oc3ccccc3c2ncn1Cc1ccccc1Cl`, with inactive: > 76.9 µM; and `COc1ccc(OC)c(-c2nnc(SCC(=O)N3CCCc4ccccc43)o2)c1`, with inactive: > 76.9 µM.
Under `CCC(C)N(C(=O)COC(=O)c1cn(CC)c2nc(C)ccc2c1=O)C1CCS(=O)(=O)C1` (stereo not given) stands inactive: > 76.9 µM; under `O=C(c1cccs1)N1CCC(c2nc3c(nnn3Cc3ccccc3)c(=O)[nH]2)CC1`, inactive: > 76.9 µM.
Under `CCOC(=O)N1CCC(NC(=O)CCC(=O)N2CC(C)Oc3ccccc32)CC1` (stereo not given) stands inactive: > 76.9 µM.
For the compound `COc1cc(C(=O)N(Cc2ccc(N(C)C)cc2)C2CCS(=O)(=O)C2)cc(OC)c1OC` (stereo not given), the Potency is inactive: > 76.9 µM.
Under `Cc1cccc(N2CCN(C(=O)c3ccc(Cl)c(S(=O)(=O)NCc4ccco4)c3)CC2)c1C` stands inactive: > 76.9 µM; under `Nn1c(COc2ccccc2)nnc1SC(F)F`, inactive: > 76.9 µM.
Under `COc1cccc2cc(C(=O)N3CCN(C(=O)c4ccco4)CC3)c(=O)oc12` stands inactive: > 76.9 µM; under `COc1cc(OC)cc(C(=O)N2CCN(C(=O)c3cccc(F)c3)CC2)c1`, inactive: > 76.9 µM.
Under `COc1cccc(Nc2ncccc2C(=O)NCc2ccccc2)c1` stands “inactive”.
Consider `COCCC(=O)N(Cc1ccc2c(c1)OCO2)C(C(=O)NC1CCCCC1)c1ccncc1` (stereo not given), for which the Potency was inactive: > 76.9 µM.
Under `C=CCc1c(C)[nH]c2ccc(C)cc2c1=O` stands inactive: > 76.9 µM; under `Cc1ccc2[nH]c(=O)c(CN(Cc3cccnc3)Cc3nnnn3CCN3CCOCC3)cc2c1`, inactive: > 76.9 µM; under `COC(=O)c1cc2ccsc2n1Cc1cc(=O)n2ccccc2n1`, “inactive”.
Then `CCOc1cc(C(=O)N(C)Cc2cc3cc(OC)ccc3[nH]c2=O)cc(OCC)c1OCC`, with inactive: > 76.9 µM; and `COCCN(CCOC)S(=O)(=O)c1ccc(C(=O)Nc2nc(C)c(C(C)=O)s2)cc1`, with inactive: > 76.9 µM.
Under `COc1ccc(CC(=O)Nc2ccc(-c3nnc(-c4ccc(C)cc4)o3)cc2)cc1` stands inactive: > 76.9 µM.
On to `Cc1cc(C(=O)OCC(=O)N2c3ccccc3CC2C)c(C)o1` (stereo not given), for which the Potency is inactive: > 76.9 µM.
Under `Cc1ccc2cc3c(NC(=O)c4ccco4)nn(C)c3nc2c1` stands inactive: > 76.9 µM; under `Cc1ccc(-c2nn(C)c(=O)c3ccccc23)cc1CNS(C)(=O)=O`, inactive: > 76.9 µM; under `COC(=O)CSc1cc(SCC(=O)OC)c(C#N)c(SCC(=O)OC)c1`, inactive: > 76.9 µM.
Consider `CCOC(=O)c1snc(C(=O)NC2CCCCC2)c1N`, for which the Potency was inactive: > 76.9 µM.
Then `CCOC(=O)Nc1cccc2ccccc12`, with inactive: > 76.9 µM.
Then `COc1ccccc1NC(=O)CSc1nnnn1Cc1ccccc1`, with inactive: > 76.9 µM.
Under `FC(F)(F)Oc1ccc(Nc2nc3ccccc3o2)cc1` stands inactive: > 76.9 µM.
Consider `Cn1c(=O)c(=O)n(C)c2cc(S(=O)(=O)N3CCC(N4CCCCC4)CC3)ccc21`, for which the Potency was inactive: > 76.9 µM.
For the compound `Cc1cc(C)c2c3c(sc2n1)C1(CCSCC1)C(C#N)=C(N)O3`, the Potency is inactive: > 76.9 µM.
Then `CCc1c(O)nc(SCC(=O)NCc2ccco2)[nH]c1=O`, with inactive: > 76.9 µM; and `COc1ccc(Br)cc1CNC(=O)CCc1nc(-c2ccccc2F)no1`, with inactive: > 76.9 µM; and `CN1CC2(C(=O)c3ccccc3)CN(C)CC(C(=O)c3ccccc3)(C1)C2`, with inactive: > 76.9 µM.
Then `CC1CCCC(NC(=O)C2CCN(S(=O)(=O)N3CCOCC3)CC2)C1C` (stereo not given), with “inactive”; and `CN(CCNC(=O)C1CCN(S(=O)(=O)c2cnc[nH]2)CC1)Cc1ccccc1`, with inactive: > 76.9 µM; and `O=C(NCCc1ccc(Cl)cc1)C1CCN(c2cnccn2)CC1`, with inactive: > 76.9 µM.
In the case of `Cc1ccc(-n2c(CSc3nc(C)cc(C)n3)nnc2SCC(=O)Nc2nccs2)cc1`, the Potency is inactive: > 76.9 µM.
Under `COc1ccc2nc(NC(=O)CSc3nc4cccnc4n3C)sc2c1` stands inactive: > 76.9 µM.
Under `COc1ccc(S(=O)(=O)Nc2ccc(NC(C)=O)cc2)cc1OC` stands inactive: > 76.9 µM; under `COc1ccccc1CNC(=O)C(C)NS(=O)(=O)c1ccc(C)cc1` (stereo not given), inactive: > 76.9 µM.
Under `O=C(Nc1ccccc1NC(=O)c1c(F)c(F)c(F)c(F)c1F)c1c(F)c(F)c(F)c(F)c1F` stands inactive: > 76.9 µM.
